Results: PubChem BioAssay AID504832 (National Center for Advancing Translational Sciences (NCATS), 2011)
The campaign covered roughly 310,000 compounds. About 18,000 (5.8%) were called active. Inconclusive results, whose numbers are uncertain, are shown with a selection of clear calls. Calls come from the whole dose curve; as a rule, active = well fitted inhibition curve with a large enough effect; inconclusive = small, poorly fitted or top-dose-only effect, or another doubt; inactive = no such curve, though single readings can be large or run the other way. Potencies of inconclusive entries are left out as doubtful fits.

assay: Primary qHTS for delayed death inhibitors of the malarial parasite plastid, 48 hour incubation; conditions: P. falciparum luciferase growth in erythrocytes; series mostly up to 28.7 µM
Summary of the method: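 Luciferase-expressing parasites in RBCs, 2% Hct / 0.1% parasitemia final; RPMI 1640 + 0.5% Albumax; 37 C, 5% CO2, one generation; luminescence read-out, lower signal = inhibition.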
Potency is the fitted concentration of half-maximal effect; tags give direction and shape of the fitted curve.

| Structure (SMILES) | Potency |
| --- | --- |
| CC(C)c1ccc(NC(=O)C(c2ccccc2)N2CCC3(CC2)OCCO3)cc1 (stereo unspecified) | inconclusive [inhibitor, partial curve, poor fit] |
| CN1CCCCC1CCN1c2ccccc2Sc2ccc(S(C)=O)cc21 (stereo unspecified) | inconclusive [inhibitor, single point] |
| CC(Oc1ccc(Cl)cc1)C(=O)Nc1ccc(S(=O)(=O)N2CCOCC2)cc1 (stereo unspecified) | active: 13.1 µM |
| Cc1cccc(C(=O)NC(NCCc2ccccc2)C(Cl)(Cl)Cl)c1 (stereo unspecified) | inconclusive [inhibitor, partial curve, poor fit] |
| C=CCn1c(SCC(=O)Nc2nc(C)cs2)nnc1C(NC(=O)c1ccccc1)C(C)C (stereo unspecified) | inconclusive [inhibitor, single point] |
| COc1ccc(-c2cc(C(=O)N3CCCCCC3)c3ccccc3n2)c(OC)c1 | inconclusive [inhibitor, single point] |
| Cc1cc(C)nc(SCc2ccc(C(=O)NN=C3C4CC5CC(C4)CC3C5)cc2)n1 | inconclusive [inhibitor, partial curve, poor fit] |
| Cc1cc(-c2ccc(C)c(S(=O)(=O)N3CCN(c4ccc(F)cc4)CC3)c2)on1 | inconclusive [inhibitor, single point] |
| COC(=O)C(Cc1ccccc1)NC(=O)C(N)CC(=O)O (stereo unspecified) | inactive |
| Cc1cc(C(=O)COC(=O)c2ccc3c(c2)OCO3)c(C)n1CC1CCCO1 (stereo unspecified) | inactive |
| Cc1nn(C)c(C)c1/C=N/N=C1\CCC2C3CCc4cc(O)ccc4C3CCC12C (stereo unspecified) | active: 2.94 µM |
| Cc1ccc(C)n1-n1c(C)nc2sc(-c3ccccc3)cc2c1=O | inconclusive [inhibitor, single point] |
| O=C(N/N=C/c1ccc([N+](=O)[O-])cc1)c1cc(-c2ccc3c(c2)OCO3)n[nH]1 | inactive |
| COc1ccc(N=C2SC(CC(=O)Nc3cccc(Cl)c3)C(=O)N2Cc2ccco2)cc1 (stereo unspecified) | inconclusive [inhibitor, single point] |
| O=S(=O)(NCC1CCN(c2ccc(S(=O)(=O)N3CCOCC3)cc2)CC1)c1ccccc1 | inconclusive [inhibitor, partial curve] |
| Cc1nc([N+](=O)[O-])cn1Cc1cccc([N+](=O)[O-])c1 | inactive |
| COc1ccccc1Cn1c(=S)[nH]c2ccc(F)cc2c1=O | inactive |
| CCC(C)(C)n1nnnc1C(c1ccc(C)cc1)N1CCN(Cc2cccnc2)CC1 (stereo unspecified) | active: 13.1 µM |
| Cc1ccccc1C(=O)N/N=C1/SCC(=O)N1Cc1ccccc1 | inactive |
| Cc1ccccc1OCC(=O)Nc1ccccc1N1CCCCC1 | inconclusive [inhibitor, partial curve] |
| CCOP(=O)(OCC)c1nc(-c2ccc(Cl)cc2Cl)oc1N1CCCCC1 | inconclusive [inhibitor, single point] |
| COc1ccc(-c2nc3ccccc3c(=O)n2CCOc2ccccc2C)cc1 | inconclusive [inhibitor, single point] |
| COc1ccccc1OCC(=O)Nc1ccc(-c2nnc(-c3ccco3)o2)cc1 | inactive |
| Cc1ccc(C)c(Nc2c([N+](=O)[O-])cc(C(=O)N3CC(=O)Nc4ccccc43)cc2[N+](=O)[O-])c1 | inconclusive [inhibitor, partial curve] |

| Structure (SMILES) | Potency |
| --- | --- |
| CC(C)(C)c1ccc(/C=N/NC(=O)C[n+]2ccccc2)cc1 | inconclusive [inhibitor, single point] |
| CCCCCn1c(=O)c(C(=O)Nc2ccccc2N)c(O)c2ccccc21 | active: 4.15 µM |
| O=C(CCCCCN1C(=O)c2ccccc2C1=O)Nc1ccc(C(=O)O)cc1 | inactive |
| CCN(CC)S(=O)(=O)c1ccc(NC(=O)COC(=O)CNC(=O)C2CCCCC2)cc1 | inconclusive [inhibitor, single point] |
| COc1ccc(/C=C/C(=O)Nc2ccc(C)cc2)cc1S(=O)(=O)N1CCOCC1 | inconclusive [inhibitor, full curve, poor fit] |
| COc1ccc(CCNC(=O)C2CCN(S(=O)(=O)c3cccc4nsnc34)CC2)cc1OC | inconclusive [inhibitor, partial curve, poor fit] |
| Cc1ccc(S(=O)(=O)Nc2ccc3cn[nH]c3c2)cc1 | inconclusive [inhibitor, partial curve] |
| Cn1c(=O)c2c(nc(Oc3ccc4c(c3)OCO4)n2Cc2ccc(Br)cc2)n(C)c1=O | inconclusive [inhibitor, full curve, poor fit] |
| COc1cccc(NC(=O)Nc2ccc3c(c2)CCC3)c1 | inactive |
| Cc1nn(-c2ccccc2)c(Cl)c1/C=N/NC(=O)c1ccccc1NS(=O)(=O)c1cccs1 | inconclusive [inhibitor, partial curve] |
| CC(C)c1ccc2c(c1)c(SC(C)(C)C)c(CC(C)(C)C(=O)O)n2Cc1ccc(Cl)cc1 | active: 8.28 µM |
| CC(=O)c1cnc2ncnn2c1C | inactive |
| CCOc1ccc2nc(N/C(N)=N/C(=S)Nc3cccc(OC)c3)nc(C)c2c1 | inconclusive [inhibitor, partial curve] |
| COc1cc(/C=N/NC(=O)c2cccc3ccccc23)cc(OC)c1OC | inconclusive [inhibitor, full curve, poor fit] |
| CN(CCCNC(=O)c1ccccc1F)CCCNC(=O)c1ccccc1F | inconclusive [inhibitor, full curve, poor fit] |
| COC(=O)C(O)(CC(=O)Nc1ccc(Cl)cc1F)C(F)(F)F (stereo unspecified) | inactive |
| Fc1ccc(NC(=S)N2CCCC(c3ccccc3)=N2)cc1 | inconclusive [inhibitor, single point] |
| Brc1ccc(-c2cn3c(n2)CCc2ccc4cccnc4c2-3)cc1 | inconclusive [inhibitor, partial curve, poor fit] |
| O=C(Cn1nc(CNc2ccc(Cl)cc2)[n+]2c1CCCCC2)c1ccccc1 | active: 0.928 µM |
| CCO[C@@H]1OC(C(=O)NCc2ccccc2)=C[C@H](c2ccc(Br)cc2)[C@H]1CCCO | inconclusive [inhibitor, single point] |
| CN(C)/C=N/c1nc(Sc2ccc(C(F)(F)F)cc2[N+](=O)[O-])n[nH]1 | inactive |
| CN1CCN(c2ccc(Cl)cc2N)CC1 | inactive |
| Cc1ccc2nc(SCC(=O)N3CCCC3)[nH]c2c1 | inactive |
| Nc1cccnc1Oc1ccc(F)cc1F | inconclusive [inhibitor, partial curve, poor fit] |

| Structure (SMILES) | Potency |
| --- | --- |
| CCn1c(CC(=O)Nc2ccc(C)cc2)nnc1SCC(=O)N1CCOCC1 | inactive |
| CN(C)CCCNC(=S)N(Cc1cccs1)Cc1cc2cc3c(cc2[nH]c1=O)OCCO3 | inconclusive [inhibitor, single point] |
| CN(Cc1ccccc1)C(=O)c1[nH]cnc1C(=O)NCc1ccc(CNC(=O)OC(C)(C)C)cc1 | inconclusive [inhibitor, single point] |
| Cc1ccc(NC(=O)C2=CCN(S(=O)(=O)c3ccc(F)cc3)CC2)c(C)c1 | inactive |
| Cc1cccc(C(=O)N2CCc3cc(-c4csc(NC(=O)CN5CCCC5)n4)ccc32)c1 | inconclusive [inhibitor, single point] |
| Cn1ccnc1SCC(=O)Nc1ccc(Br)cc1C(F)(F)F | inactive |
| CSc1ccccc1NC(=O)C1=COCCO1 | inactive |
| CN(C)S(=O)(=O)c1ccc(C(=O)Nc2ccccc2[N+](=O)[O-])cc1 | inactive |
| COc1ccc(S(=O)(=O)Nc2cc(OC)c(NC(=O)c3ccco3)cc2OC)cc1 | inconclusive [inhibitor, single point] |
| CCOc1ccccc1CN1CCN(Cc2nc3c(s2)CCCC3)CC1CCO (stereo unspecified) | inconclusive [inhibitor, single point] |
| Cc1ccc(C=Nc2ccccc2C#N)s1 | inactive |
| COCCn1c(=S)[nH]c2cc(C(=O)NCCc3ccccc3)ccc2c1=O | inactive |
| CCN(CC)Cc1c(C(=O)N/N=C(\C)c2ccncc2)nnn1-c1nonc1N | inactive |
| CC(C)NC(=S)N/N=C/c1c[nH]c2ccccc12 | inconclusive [inhibitor, single point] |
| COc1ccc(OC)c(C2C3=C(COC3=O)Nc3cc4c(cc32)OCO4)c1 (stereo unspecified) | inconclusive [inhibitor, single point] |
| CC1CCCN(S(=O)(=O)c2ccc(NC(=O)C3CCN(C(=O)C(C)(C)C)CC3)cc2)C1 (stereo unspecified) | active: 5.22 µM |
| CCCC(C(=O)NC1CCCC1)N(Cc1ccccc1)C(=O)c1snc(C(N)=O)c1N (stereo unspecified) | inconclusive [inhibitor, single point] |
| COC(=O)c1ccc(CSc2nc3ccccc3o2)cc1 | inactive |
| COc1ccccc1NS(=O)(=O)c1cc(N/C(=N\S(=O)(=O)c2ccccc2)c2ccc(F)cc2)ccc1Cl | active: 9.28 µM |
| Cc1cccc(NC(=O)C(Cc2ccccc2)c2nn[nH]n2)c1C (stereo unspecified) | inconclusive [inhibitor, partial curve, poor fit] |
| O=C(NCCSCc1ccco1)Nc1cccc(Cl)c1 | inconclusive [inhibitor, single point] |
| CCOC(=O)NNc1nncc2ccccc12 | inactive |
| Cc1cc(-n2c(C)cc(C(=O)CSc3ccc4c(c3)OCCO4)c2C)no1 | inconclusive [inhibitor, single point] |
